From PubChem BioAssay AID485364 (National Center for Advancing Translational Sciences (NCATS), 2010)
The campaign covered roughly 360,000 compounds. About 11,000 (3.1%) were called active. This list was built around the results that the source calls inconclusive (neither active nor inactive); the mix of calls is not that of the screen. The call rests on the fitted dose curve; in most records, active means well fitted inhibition curve with a large enough effect; inconclusive means small, poorly fitted or top-dose-only effect; inactive means no such curve, though single readings can be large or run the other way. No potency is given beside an inconclusive call; the fits are too rough.

Molecular target: Schistosoma mansoni thioredoxin glutathione reductase (TGR) (UniProt Q962Y6)
Assay: qHTS Assay for the Inhibitors of Schistosoma Mansoni Peroxiredoxins; further: nearly all actives have a fitted effect of over 60% in size
Details: purified TGR, DTNB reduction, TNB absorbance 405 nm; series mostly up to 114 µM
Summary of the method: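 Kinetic colorimetric format: TGR-catalysed, NADPH-driven DTNB reduction monitored via TNB absorbance. Enzyme dispensed at 20 nM; compound exposure 15 min at room temperature before reaction start.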
Potency means the concentration at half of the fitted maximal effect; tags describe the fitted curve by direction and shape.

SMILES | Potency
O=S(=O)(Nc1ccc2c(c1)nc1n2CCN(Cc2ccccc2)C1)c1ccc(F)cc1 | inconclusive [inhibitor, partial curve]
O=C(C1CCN(C2CC(=O)N(c3cccc(Cl)c3)C2=O)CC1)N1CCCCCC1 (centres undefined) | active: 14.1 µM
O=C(CSc1ccc2ccccc2c1)N1CCN(c2ccc(O)cc2)CC1 | active: 50.1 µM
O=C(CN1CCOCC1)NC1CC2CCC1C2 (centres undefined) | inconclusive [inhibitor, partial curve]
COc1ccc(Cn2c(C(=O)O)c(CNCCc3ccco3)c3ccc(OC)cc32)cc1 | active: 44.7 µM
COc1ccc2[nH]c(C)c(CCN(Cc3cccs3)C(=S)Nc3ccccc3)c2c1 | inactive
O=C(CSc1ccccc1)N1CCN(C(=O)c2ccco2)CC1 | inconclusive [inhibitor, partial curve]
O=C(O)c1ccc(N/N=C/C2=C(N3CCOCC3)C(=C\c3ccccc3)/CC2)cc1 | active: 17.8 µM
CC(C)(C)c1cc[n+](/C(C(=S)NC2CC2)=C(/[O-])c2ccc(Cl)s2)cc1 | inactive
Cc1ccccc1CS(=O)(=O)c1nnc([C@H](Cc2ccccc2)NC(=O)OC(C)(C)C)o1 | active: 1.12 µM
O=C(CSc1nnc(C2CC2)n1C1CC1)Nc1cccc(Br)c1 | inactive
CCCCC(=O)Nc1cccc(-c2cn3ccccc3n2)c1 | inconclusive [inhibitor, partial curve, poor fit]
O=C1CN(c2ccccc2)C(=S)N1C(=O)c1ccccc1 | inconclusive [inhibitor, single point]
COc1ccc(CCNC(=O)CSCc2nc(-c3ccc(OC)c(OC)c3)oc2C)cc1OC | inactive
CCOC(=O)CC(NC(=O)Cc1cccs1)c1ccccc1Cl (centres undefined) | active: 89.1 µM
O=C1NC(=S)N(C2CC2)C(=O)/C1=C/c1ccc2c(c1)CCN2CCCCl | inconclusive [inhibitor, full curve]
CC1(C(O)(C#CCN2CCCCC2)c2ccccc2)CCCC1 (centres undefined) | inconclusive [inhibitor, partial curve]
O=C(Nc1ccc(N2CCOCC2)c(S(=O)(=O)Nc2ccccc2Cl)c1)c1ccccc1 | inactive
CSc1nc(-c2ccco2)nn1S(=O)(=O)c1ccc(C)cc1 | inactive
COc1ccc(S(=O)(=O)N2CCOC23CCN(S(=O)(=O)c2cc(C)ccc2OC)CC3)cc1 | inconclusive [inhibitor, partial curve]
CC(Cc1ccco1)NC(=O)c1cccc(S(=O)(=O)N(C)C)c1 (centres undefined) | inconclusive [inhibitor, partial curve]
O=C(COC(=O)c1cc(Cl)ccc1O)NC(=O)NCc1ccccc1 | inconclusive [inhibitor, partial curve]
O=C(N/C=C/c1ccco1)Nc1cccc(Cl)c1 | active: 44.7 µM
COc1ccccc1CCNC(=O)C1CCC(=O)N(Cc2ccccc2OC)C1 (centres undefined) | inactive
CC1=CC(=O)C(C(C)C)=C/C1=N/OC(=O)c1cccc([N+](=O)[O-])c1 | active: 44.7 µM

SMILES | Potency
Nc1c(C(=O)NCCN2CCOCC2)c2nc3ccccc3nc2n1Cc1ccco1 | inconclusive [inhibitor, partial curve]
COc1cccc(NC(=O)N2C3CCCC2CC(NC(=O)C(C)(C)C)C3)c1 (centres undefined) | inactive
CCOC(=O)C(=Cc1c[nH]c2ccc(S(=O)(=O)N(C)C)cc12)C(=O)OCC | inconclusive [inhibitor, partial curve]
O=C(CNC(=O)c1ccco1)OCc1cccc(Cl)c1 | active: 44.7 µM
CCCCCCn1c(=O)[nH]c2nc3cc(N)ccc3nc2c1=O | inconclusive [inhibitor, partial curve]
COc1ccc(C(=O)C[n+]2cn(C(F)F)c3ccccc32)c(F)c1 | active: 10 µM
COc1cccc(CNC(=O)Cc2ccc(-c3ccccc3)cc2)c1 | inconclusive [inhibitor, single point]
CC1(C)CC(=O)c2c(oc3cc(O)c(O)cc23)C1 | inconclusive [inhibitor, full curve, poor fit]
CCCCn1c(C)cc2c(c1=O)C1O[C@](c3ccc(OC)cc3)(Cc3cc(OC)c(OC)cc31)O2 | inconclusive [inhibitor, single point]
CC[C@]1(c2cccc(C)c2)C(=O)N(C(=O)OC)N1C(=O)OC | active: 1.78 µM
COc1cc2nc(N3CCN(C(=O)[C@H]4COc5ccccc5O4)CC3)nc(N)c2cc1OC | inactive
Cc1cc(O)c(-c2cc(O)c(C)cc2O)cc1O | active: 1.26 µM
CCN(CC)CCn1c2c(c(SCC(=O)Nc3ccc4c(c3)OCCO4)nc1=O)CCCC2 | inconclusive [inhibitor, partial curve]
C/C(Cn1nnc([N+](=O)[O-])n1)=N\NC(=O)c1ccccc1O | inconclusive [inhibitor, partial curve]
Cc1ccc(CNC(=O)CS(=O)Cc2nc(-c3cccs3)oc2C)cc1 (centres undefined) | active: 25.1 µM
CC(=O)c1cccc(NC(=O)Cn2c(C)c3cnn(-c4ccccc4)c(=O)c3c2C)c1 | inconclusive [inhibitor, partial curve]
COc1ccc(-c2nn(-c3ccccc3)cc2C(=O)N(C)C)cc1 | inactive
COc1ccc(C(=O)N2CCN(c3ccccc3OC)CC2)cc1 | inconclusive [inhibitor, single point]
COc1ccc(CN2CCN(C(=O)c3cccc4ccccc34)CC2)cc1OC | inactive
O=C(O)C1Cc2ccccc2CN1S(=O)(=O)/C=C/c1ccccc1 (centres undefined) | inconclusive [inhibitor, partial curve]
OC1(CNCc2ccccc2)C2CC3CC(C2)CC1C3 (centres undefined) | inactive
COc1ccc(/C(O)=C/C(=O)C(=O)NNC(=O)c2ccccc2)cc1 | active: 14.1 µM
COc1cc(OC)cc(C(=O)N2CCN(C(=O)c3ccc(OC)c(OC)c3)CC2)c1 | inactive
COc1ccc(-c2nc(CS(=O)(=O)CC(=O)NCCc3ccccc3)c(C)o2)cc1 | inconclusive [inhibitor, full curve, poor fit]
CC1=NNC(=O)C1CC(=O)N/N=C/c1ccc(C)o1 (centres undefined) | inconclusive [inhibitor, single point]

SMILES | Potency
CCOC(=O)Nc1ccc2c(c1)OCO2 | inactive
CCOC(=O)NCc1ccc2[nH]c(C)cc2c1 | inconclusive [inhibitor, partial curve]
CC1=C(c2ccc(C(C)C)cc2)S(=O)(=O)N=C1N1CCN(C(=O)c2ccco2)CC1 | inconclusive [inhibitor, full curve, poor fit]
COc1ccc(NC(=O)c2cc3c(=O)n(Cc4ccco4)ccc3nc2C)c(OC)c1 | inconclusive [inhibitor, partial curve]
Cc1nc(-c2ccccc2)sc1C1(C)CC(c2ccc([N+](=O)[O-])cc2)=NO1 (centres undefined) | inconclusive [inhibitor, full curve, poor fit]
CCO/C=C1\C(=O)N(c2ccc(OCC)cc2)C(=O)c2ccccc21 | inconclusive [inhibitor, partial curve]
CCOC1(OCC)C(c2ccc(Cl)cc2)C(C#N)(C#N)C1(OCC)OCC (centres undefined) | inactive
CCOC(=O)N1CCN(c2cc(=O)n(-c3ccccc3Cl)c(=O)[nH]2)CC1 | inconclusive [inhibitor, partial curve]
COc1cc(C2CC(=O)c3cnc(NC(=O)c4ccco4)nc3C2)cc(OC)c1OC (centres undefined) | inactive
O=C(c1ccc(Sc2ccccc2)c([N+](=O)[O-])c1)N1CCOCC1 | inconclusive [inhibitor, single point]
CCOc1ccc(N2C(=O)CC(N3CCN(c4ccc([N+](=O)[O-])cc4)CC3)C2=O)cc1 (centres undefined) | active: 10 µM
O=C(NCC1CCCCC1)C1(CC2CC(c3ccc(Cl)cc3)=NO2)CCNCC1 (centres undefined) | inconclusive [inhibitor, partial curve]
COC(=O)c1cn(CCOc2ccccc2F)c2ccccc12 | inactive
C=CCNC(=O)CC(=O)N/N=C/c1ccc(C(=O)OC)cc1 | inactive
CC(C)[C@H](NC(=O)c1ccccc1F)C(=O)NCCc1ccccc1 | inconclusive [inhibitor, single point]
Cc1ccc(C)c2[nH]c(=O)c(CN(Cc3ccco3)C(=S)NCC3CCCO3)cc12 (centres undefined) | inconclusive [inhibitor, partial curve]
O=C(c1ccc(NC(=S)Nc2ccc(F)cc2F)cc1)N1CCOCC1 | inconclusive [inhibitor, partial curve]
COCCOC(=O)c1[nH]c2c(c1C)C(=O)CC(c1cc(OC)c(OC)c(OC)c1)C2 (centres undefined) | inactive
C/C=C\C=C/C(=O)Nc1cccc(C2=NOC3(C2)C[C@@H](C(N)=O)N(C(=O)c2ccccc2)C3)c1 (some centres undefined) | active: 3.16 µM
O=C(NCc1cc(F)ccc1F)C1CCC(=O)N(C2CCCCCC2)C1 (centres undefined) | inactive
NC(=O)C[N+]1(CC#CC(O)(c2ccccc2)c2ccccc2)CCCC1 | inconclusive [inhibitor, partial curve]
O=[N+]([O-])c1ccc(C(c2sc3nc(-c4ccco4)nn3c2O)N2CCC3(CC2)OCCO3)cc1 (centres undefined) | inactive
COc1ccc(N2CCN(c3oc(/C=C/c4cccc(OC)c4)nc3C#N)CC2)cc1 | inactive
c1ccc(N2CCN(c3nc4cc5c(cc4s3)OCO5)CC2)cc1 | inactive
